The values that follow come from publication PMC4336329 (PLoS ONE, 2015).

Out of some 310,000 compounds screened, about 14,000 (4.5%) showed an effect of 50% or more. Effects have a minus sign here. This is one part of the list.
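Also: peak tail current of the secondary pulse compared with the same well before compound.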

Chain of human ether-à-go-go-related gene (hERG) potassium channel (Q12809 whole entry, looked up): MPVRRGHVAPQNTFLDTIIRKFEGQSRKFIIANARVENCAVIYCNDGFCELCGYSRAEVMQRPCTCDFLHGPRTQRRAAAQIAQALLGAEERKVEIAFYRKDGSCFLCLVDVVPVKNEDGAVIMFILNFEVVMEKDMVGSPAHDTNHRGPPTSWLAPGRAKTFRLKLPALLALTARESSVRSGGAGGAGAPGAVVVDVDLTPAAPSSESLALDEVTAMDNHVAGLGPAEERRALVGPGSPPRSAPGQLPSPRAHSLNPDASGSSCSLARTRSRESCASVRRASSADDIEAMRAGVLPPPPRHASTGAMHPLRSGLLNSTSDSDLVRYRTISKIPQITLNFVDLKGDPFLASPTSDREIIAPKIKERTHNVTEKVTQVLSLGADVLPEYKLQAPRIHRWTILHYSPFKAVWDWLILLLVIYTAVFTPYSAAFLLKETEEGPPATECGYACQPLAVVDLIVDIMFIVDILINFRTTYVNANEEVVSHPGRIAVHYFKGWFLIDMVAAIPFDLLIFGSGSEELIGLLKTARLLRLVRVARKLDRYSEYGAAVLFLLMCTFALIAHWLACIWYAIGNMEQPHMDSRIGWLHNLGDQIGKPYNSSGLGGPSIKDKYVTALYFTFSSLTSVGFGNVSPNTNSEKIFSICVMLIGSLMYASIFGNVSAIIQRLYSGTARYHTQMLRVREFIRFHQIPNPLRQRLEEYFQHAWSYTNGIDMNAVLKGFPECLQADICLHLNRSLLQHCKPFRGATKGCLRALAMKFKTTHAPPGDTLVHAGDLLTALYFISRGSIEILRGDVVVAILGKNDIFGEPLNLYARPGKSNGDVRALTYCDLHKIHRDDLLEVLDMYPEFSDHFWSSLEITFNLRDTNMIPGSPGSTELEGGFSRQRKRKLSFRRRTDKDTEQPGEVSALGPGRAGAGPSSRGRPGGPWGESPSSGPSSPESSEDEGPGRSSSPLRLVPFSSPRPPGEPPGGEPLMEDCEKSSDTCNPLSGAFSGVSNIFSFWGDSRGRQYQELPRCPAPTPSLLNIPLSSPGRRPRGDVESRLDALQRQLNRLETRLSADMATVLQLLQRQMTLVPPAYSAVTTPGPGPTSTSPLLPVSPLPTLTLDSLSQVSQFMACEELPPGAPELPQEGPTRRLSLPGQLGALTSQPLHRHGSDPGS

The experiment concerns the target human ether-à-go-go-related gene (hERG) potassium channel (human, UniProt Q12809). Kind of experiment: primary screen, population patch clamp on CHO cells stably expressing hERG.
`CSCCCNC(=O)c1ccccc1OC1CCN(S(C)(=O)=O)CC1`: the “hERG current change (%, negative = inhibition) at 10uM” value was 1.38%. Consider `COC(=O)c1cn(NC(=O)c2cccc(OC)c2)c(=O)c2ccccc12`, for which the “hERG current change (%, negative = inhibition) at 10uM” value turned out to be 16.4%. Regarding `COc1ccc(CN=C(C#N)C2=C(O)c3ccccc3C2=O)cc1`, the “hERG current change (%, negative = inhibition) at 10uM” value is on record as 11.6%. As for `O=C(Cc1ccc(Cl)cc1)NCCS(=O)c1ccc(Cl)cc1` (stereo not drawn), the figure is -29.6%; as for `O=C(/C=C/c1ccccn1)c1cc(Br)ccc1O`, -37.3%; as for `c1ccc(-c2csc(N3CCCCCC3)n2)cc1`, 7.66%. Consider `Cc1cc(C)c(NC(=O)COC(=O)Cc2ccsc2)c(C)c1`, for which the “hERG current change (%, negative = inhibition) at 10uM” value turned out to be 20.8%. `CCCn1c(NCc2ccccn2)nc2ccccc21`: the “hERG current change (%, negative = inhibition) at 10uM” value is on record as -16%. `CCn1c(SCC(=O)NCc2ccccc2)nnc1-c1cccnc1`: the “hERG current change (%, negative = inhibition) at 10uM” value was found to be 16.8%. With `COc1ccc(NC(=O)CN2CCN(c3ccccc3F)CC2)cc1` the figure was -18.1%; with `COc1ccccc1-c1nnc(SCC(=O)N2CCOCC2)n1-c1ccccc1`, -0.0657%. Take `CC1(C)CC(=O)C(C=Nc2ccccc2C(=O)O)=C(O)C1`: the “hERG current change (%, negative = inhibition) at 10uM” value amounted to 0.8%. As for `O=C(c1cccc([N+](=O)[O-])c1)N1CCN(S(=O)(=O)/C=C/c2ccccc2)CC1`, the “hERG current change (%, negative = inhibition) at 10uM” value was -64.3%.

As to `Cn1nc(-c2ccc(C(=O)N3CCN(Cc4ccccc4)CC3)cc2)c2ccccc2c1=O`, the “hERG current change (%, negative = inhibition) at 10uM” value was -41.7%. With `O=C(c1ccc(Cn2c(=S)[nH]c3ccc(N4CCOCC4)cc3c2=O)cc1)N1CCN(c2ccc(F)cc2)CC1`, the “hERG current change (%, negative = inhibition) at 10uM” value worked out at 13.2%. For the compound `CC(C)NC(=O)C(=O)NCCc1ccc(Cl)cc1`, the “hERG current change (%, negative = inhibition) at 10uM” value was found to be 12%. As for `Oc1c(C=C2N=c3ccccc3=N2)sc(=S)n1-c1ccc2ccccc2c1`, the figure is 4.51%; as for `CC(C)c1ccc(C(=O)N/N=C/c2cccc(Cl)c2Cl)cc1`, 1.54%; as for `CC(C)(C)NNC(=S)Nc1ccc(S(=O)(=O)N2CCOCC2)cc1`, 9.07%. As to `CN(Cc1ccccc1)C(=O)c1oc(=O)c2ccccc2c1-c1ccccc1`, the “hERG current change (%, negative = inhibition) at 10uM” value was -13.1%. With `Cc1cc(C)c(OCCN2CCOCC2)c(Cl)c1`, the “hERG current change (%, negative = inhibition) at 10uM” value came to 8.09%. As for `CC(C)C(C(=O)Nc1ncn[nH]1)N1C(=O)c2ccccc2C1=O` (stereo not drawn), the “hERG current change (%, negative = inhibition) at 10uM” value came to 11.2%. `CCOc1ccc(C2C(C#N)=C(N)Oc3cc(C)[nH]c(=O)c32)cc1OC` (stereo not drawn): the “hERG current change (%, negative = inhibition) at 10uM” value was -6.65%. Turning to `O=C(COc1ccc(Cl)cc1)NCCC1=CCCCC1`, the “hERG current change (%, negative = inhibition) at 10uM” value is recorded as -10.1%. Consider `Cc1n[nH]c(C)c1S(=O)(=O)N1CCC(C(=O)Nc2cccc(F)c2)CC1`, for which the “hERG current change (%, negative = inhibition) at 10uM” value is given as -8.28%. Consider `CCOc1ccc(N2CC(C(=O)NC3CCCC3)CC2=O)cc1` (stereo not drawn), for which the “hERG current change (%, negative = inhibition) at 10uM” value is recorded as 2.11%.

Consider `CCc1ccc(N(C(=O)c2csnn2)C(C(=O)NC(C)(C)C)c2ccncc2)cc1` (stereo not drawn), for which the “hERG current change (%, negative = inhibition) at 10uM” value was -5.68%. For `CC(/C=C/c1cccc([N+](=O)[O-])c1)=N/NC(=O)c1cccnc1`, the “hERG current change (%, negative = inhibition) at 10uM” value is given as -22.7%. Regarding `O=c1cc(O)nc(-c2ccc(Cl)cc2)s1`, the “hERG current change (%, negative = inhibition) at 10uM” value is on record as 13.1%. For the compound `CCN1C(=O)/C(=C\C=C2/C=CC=CN2CC)SC1=S`, the “hERG current change (%, negative = inhibition) at 10uM” value is on record as -5.68%. With `O=C(Oc1cccc([N+](=O)[O-])c1)c1ccc2c(=O)n3c(nc2c1)CCC3` the figure was -47.9%; with `Cc1ccccc1Nc1nc2ccccc2s1`, -7.2%. With `N#CC1=C(SCc2ccccc2)NC(=O)CC1c1ccc(O)cc1` (stereo not drawn) the figure was -11%; with `O=C(Cn1cnc2ccccc21)c1ccc(Br)cc1`, -15.1%. With `Cc1ccc(CNC(=O)c2cc3ccccc3oc2=O)cc1` the figure was 0.761%. On to `CCCCCCc1c(C)nc(-n2[nH]c(C)c(CCO)c2=O)[nH]c1=O`, for which the “hERG current change (%, negative = inhibition) at 10uM” value came out at 9.15%. With `COc1cccc(C(=O)NN2C(=O)C3C4C=CC(O4)C3C2=O)c1` (stereo not drawn) the figure was 22.9%; with `O=C(NCc1ccccn1)c1ccc2nc(C3CCCCC3)oc2c1`, 22.5%; with `CCn1nc(CC(=O)Nc2nnc(CC(=O)N3CCCC3)s2)c2ccccc2c1=O`, 0.588%. With `Oc1ccc(-c2nc3ccccc3nc2-c2ccccc2)cc1` the figure was -6.06%.

On to `CCc1cc2ccccc2nc1Cl`, for which the “hERG current change (%, negative = inhibition) at 10uM” value was found to be 6.29%. On to `CCOC(=O)C1=C(c2ccccc2)NC(=S)NC1c1ccc(C)c([N+](=O)[O-])c1` (stereo not drawn), for which the “hERG current change (%, negative = inhibition) at 10uM” value was -15.6%. With `CCOc1ccc(OCC)c(Nc2cc(C)nc3ncnn23)c1`, the “hERG current change (%, negative = inhibition) at 10uM” value is on record as -24.1%. `Cc1csc(SCC(=O)NC(=O)NCCC(C)C)n1`: the “hERG current change (%, negative = inhibition) at 10uM” value is -14%. As for `CCCN(CCC)C(=O)C1CC(=O)OC12CCOC(C)(C)C2` (stereo not drawn), the “hERG current change (%, negative = inhibition) at 10uM” value is listed as -1.8%.
